Results taken from PubChem BioAssay AID2060325 (Molecular Pharmacology Branch, DTP, NCI, 2025).
Certain results were filed several times, with different values. They are shown here; other results are not. There may be further records. Values that stand side by side are repeated measurements across runs, samples, wells, individuals or studies.

Tested on: SK-OV-3 multi-cell spheroids, viability
Test: Anticancer human tumor SK-OV-3 cell line growth inhibition [IpAb]
Settings: compound alone; run of 05/18/2021
Text: Combinatorial screen of targeted agents with ipatasertib and abemaciclib in multi-cell type tumor spheroids
A high-throughput screen of multi-cell type tumor spheroids was designed to identify active combinations of targeted small molecules and ipatasertib or abemaciclib. Complex spheroids include a stromal component modeled by human endothelial cells (HUVEC) and fibroblasts modeled by human mesenchymal stem cells (MSCs). The concentration ranges selected for each drug and investigational agent were based upon clinically achievable concentrations if the clinical Cmax of the agent was known.
Compounds. […] If the clinical Cmax for an agent had not been determined, the highest concentration tested was 10 microM.
NCI60 Cell Culture. […] The optimal seeding densities for each of the cell lines at each time point assessed were determined prior to performing the concentration response studies. […]

`CCN1CCN(Cc2ccc(Nc3ncc(F)c(-c4cc(F)c5nc(C)n(C(C)C)c5c4)n3)nc2)CC1` was tested, and the IC50 was 176, 340, 99.6, 249, 478, 251, 588, 536, 524, 467, 312, 261, 286 nM.
